# Experimental data reported in the supplement of paper PMC8728848.
# This is one part of the list.
# Assays:
# Experiment in all cases: glycan array binding signal (z-score within array); higher = stronger binding
# Conditions in all cases: glycan notation: IUPAC condensed, linker removed; mutation: R144S
# [1] = target: Neu5Ac(a2-6)Gal(b1-4)GlcNAc(b1-2)Man(a1-3)Man(b1-4)GlcNAc(b1-4)GlcNAc
# In short: (§1)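 The binding signal is a Z-score computed within each array. Data were drawn from 3228 arrays in the Consortium for Functional Glycomics database, restricted to those with a known protein sequence. Scores were averaged over arrays of the same protein sequence at different concentrations or buffers, and over linkers, and negative values can be taken as non-binding.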
# [2] = target: Neu5Ac(a2-6)Gal(b1-4)GlcNAc(b1-2)Man(a1-3)[Gal(b1-4)GlcNAc(b1-2)Man(a1-6)]Man(b1-4)GlcNAc(b1-4)GlcNAc
# In short: as §1
# [3] = target: Neu5Ac(a2-6)Gal(b1-4)GlcNAc(b1-2)Man(a1-3)[GlcNAc(b1-2)Man(a1-6)]Man(b1-4)GlcNAc(b1-4)GlcNAc
# In short: as §1
# [4] = target: Neu5Ac(a2-6)Gal(b1-4)GlcNAc(b1-2)Man(a1-3)[GlcNAc(b1-2)Man(b1-4)GlcNAc(b1-2)Man(a1-6)]Man(b1-4)GlcNAc(b1-4)GlcNAc
# In short: as §1
# [5] = target: Neu5Ac(a2-6)Gal(b1-4)GlcNAc(b1-2)Man(a1-3)[Man(a1-6)]Man(b1-4)GlcNAc(b1-4)GlcNAc
# In short: as §1
# [6] = target: Neu5Ac(a2-6)Gal(b1-4)GlcNAc(b1-2)Man(a1-3)[Neu5Ac(a2-6)Gal(b1-4)GlcNAc(b1-2)Man(a1-6)]Man(b1-4)GlcNAc(b1-4)GlcNAc
# In short: as §1
# [7] = target: Neu5Ac(a2-6)Gal(b1-4)GlcNAc(b1-2)Man(a1-6)Man(b1-4)GlcNAc(b1-4)GlcNAc
# In short: as §1
# [8] = target: Neu5Ac(a2-6)Gal(b1-4)GlcNAc(b1-2)Man(a1-6)[Gal(b1-4)GlcNAc(b1-2)Man(a1-3)]Man(b1-4)GlcNAc(b1-4)GlcNAc
# In short: as §1
# [9] = target: Neu5Ac(a2-6)Gal(b1-4)GlcNAc(b1-2)Man(a1-6)[GlcNAc(b1-2)Man(a1-3)]Man(b1-4)GlcNAc(b1-4)GlcNAc
# In short: as §1
# [10] = target: Neu5Ac(a2-6)Gal(b1-4)GlcNAc(b1-2)Man(a1-6)[Man(a1-3)]Man(b1-4)GlcNAc(b1-4)GlcNAc
# In short: as §1
# [11] = target: Neu5Ac(a2-6)Gal(b1-4)GlcNAc(b1-3)Gal(b1-3)GlcNAc
# In short: as §1
# [12] = target: Neu5Ac(a2-6)Gal(b1-4)GlcNAc(b1-3)Gal(b1-4)GlcNAc
# In short: as §1
# [13] = target: Neu5Ac(a2-6)Gal(b1-4)GlcNAc(b1-3)Gal(b1-4)GlcNAc(b1-3)Gal(b1-4)GlcNAc
# In short: as §1
# [14] = target: Neu5Ac(a2-6)Gal(b1-4)GlcNAc(b1-3)Gal(b1-4)[Fuc(a1-3)]GlcNAc(b1-3)Gal(b1-4)[Fuc(a1-3)]GlcNAc
# In short: as §1
# [15] = target: Neu5Ac(a2-6)Gal(b1-4)GlcNAc(b1-3)GalNAc
# In short: as §1
# [16] = target: Neu5Ac(a2-6)Gal(b1-4)GlcNAc6S
# In short: as §1
# [17] = target: Neu5Ac(a2-6)GalNAc
# In short: as §1
# [18] = target: Neu5Ac(a2-6)GalNAc(b1-4)GlcNAc
# In short: as §1
# [19] = target: Neu5Ac(a2-6)GlcNAc(b1-4)GlcNAc
# In short: as §1
# [20] = target: Neu5Ac(a2-6)GlcNAc(b1-4)GlcNAc(b1-4)GlcNAc
# In short: as §1
# [21] = target: Neu5Ac(a2-8)Neu5Ac
# In short: as §1
# [22] = target: Neu5Ac(a2-8)Neu5Ac(a2-3)Gal(b1-4)Glc
# In short: as §1
# [23] = target: Neu5Ac(a2-8)Neu5Ac(a2-3)[GalNAc(b1-4)]Gal(b1-4)Glc
# In short: as §1
# [24] = target: Neu5Ac(a2-8)Neu5Ac(a2-8)Neu5Ac
# In short: as §1
# [25] = target: Neu5Ac(a2-8)Neu5Ac(a2-8)Neu5Ac(a2-3)Gal(b1-4)Glc
# In short: as §1
# [26] = target: Neu5Ac(a2-8)Neu5Ac(a2-8)Neu5Ac(a2-3)[GalNAc(b1-4)]Gal(b1-4)Glc
# In short: as §1
# [27] = target: Neu5Ac(a2-8)Neu5Ac(a2-8)Neu5Ac(a2-8)Neu5Ac(a2-3)[GalNAc(b1-4)]Gal(b1-4)Glc
# In short: as §1
# [28] = target: Neu5Ac(b2-6)Gal(b1-4)GlcNAc
# In short: as §1
# [29] = target: Neu5Ac(b2-6)GalNAc
# In short: as §1
# [30] = target: Neu5Ac9Ac(a2-3)Gal(b1-3)GlcNAc
# In short: as §1
# [31] = target: Neu5Ac9Ac(a2-3)Gal(b1-4)GlcNAc
# In short: as §1
# [32] = target: Neu5Ac9Ac(a2-6)Gal(b1-4)GlcNAc
# In short: as §1
# [33] = target: Neu5Gc(a2-3)Gal(b1-3)GlcNAc
# In short: as §1
# [34] = target: Neu5Gc(a2-3)Gal(b1-3)[Fuc(a1-4)]GlcNAc
# In short: as §1
# [35] = target: Neu5Gc(a2-3)Gal(b1-4)Glc
# In short: as §1
# [36] = target: Neu5Gc(a2-3)Gal(b1-4)GlcNAc
# In short: as §1
# [37] = target: Neu5Gc(a2-3)Gal(b1-4)[Fuc(a1-3)]GlcNAc
# In short: as §1
# [38] = target: Neu5Gc(a2-6)Gal(b1-4)GlcNAc
# In short: as §1
# [39] = target: Neu5Gc(a2-6)GalNAc
# In short: as §1
# [40] = target: Neu5Gc(b2-6)Gal(b1-4)GlcNAc
# In short: as §1
binder,measurement,setting,value
"Gal 3 (Homo sapiens), P17931 (protein) MADNFSLHDALSGSGNPNPQGWPGAWGNQPAGAGGYPGASYPGAYPGQAPPGAYPGQAPPGAYHGAPGAYPGAPAPGVYPGPPSGPGAYPSSGQPSAPGAYPATGPYGAPAGPLIVPYNLPLPGGVVPRMLITILGTVKPNANSILDFQRGNDVAFHFNPRFNENNRRVIVCNTKLDNNWGREERQSVFPFESGKPFKIQVLVEPDHFKVAVNDAHLLQYNHRVKKLNEISKLGISGDIDLTSASYTMI",glycan array binding signal (z-score),[1],-0.363
same,glycan array binding signal (z-score),[2],-0.061
same,glycan array binding signal (z-score),[3],-0.357
same,glycan array binding signal (z-score),[4],-0.364
same,glycan array binding signal (z-score),[5],-0.357
same,glycan array binding signal (z-score),[6],-0.309
same,glycan array binding signal (z-score),[7],-0.358
same,glycan array binding signal (z-score),[8],-0.34
same,glycan array binding signal (z-score),[9],-0.363
same,glycan array binding signal (z-score),[10],-0.339
same,glycan array binding signal (z-score),[11],-0.355
same,glycan array binding signal (z-score),[12],-0.355
same,glycan array binding signal (z-score),[13],0.657
same,glycan array binding signal (z-score),[14],-0.365
same,glycan array binding signal (z-score),[15],-0.359
same,glycan array binding signal (z-score),[16],-0.36
same,glycan array binding signal (z-score),[17],-0.364
same,glycan array binding signal (z-score),[18],-0.362
same,glycan array binding signal (z-score),[19],-0.364
same,glycan array binding signal (z-score),[20],-0.355
same,glycan array binding signal (z-score),[21],-0.357
same,glycan array binding signal (z-score),[22],-0.326
same,glycan array binding signal (z-score),[23],-0.363
same,glycan array binding signal (z-score),[24],-0.355
same,glycan array binding signal (z-score),[25],-0.344
same,glycan array binding signal (z-score),[26],-0.358
same,glycan array binding signal (z-score),[27],-0.278
same,glycan array binding signal (z-score),[28],-0.362
same,glycan array binding signal (z-score),[29],-0.363
same,glycan array binding signal (z-score),[30],-0.363
same,glycan array binding signal (z-score),[31],-0.365
same,glycan array binding signal (z-score),[32],-0.364
same,glycan array binding signal (z-score),[33],-0.363
same,glycan array binding signal (z-score),[34],-0.357
same,glycan array binding signal (z-score),[35],-0.35
same,glycan array binding signal (z-score),[36],-0.358
same,glycan array binding signal (z-score),[37],-0.362
same,glycan array binding signal (z-score),[38],-0.362
same,glycan array binding signal (z-score),[39],-0.361
same,glycan array binding signal (z-score),[40],-0.358
